# In the antibiotic and cytotoxicity screens of Wong et al. (2023):
# The other results are listed elsewhere or left out.
# Assays:
# [1] = tested on: HSkMC (human skeletal muscle cells); test: cytotoxicity call (relative viability < 0.9); conditions: 10 µM
# [2] = tested on: HepG2; test: cytotoxicity call (relative viability < 0.9); conditions: 10 µM
# [3] = tested on: S. aureus RN4220; test: growth inhibition call (relative growth <= 0.2); conditions: 50 µM
SMILES,cytotoxicity call [1],cytotoxicity call [2],growth inhibition call [3]
N[C@H]1[C@H](CCCCC(=O)O)SC[C@@H]1N,inactive,inactive,inactive
N#CCNC(=O)Cc1ccccc1,inactive,inactive,inactive
C[C@@H]1CN([C@@H](C)CO)C(=O)c2cc(NC(=O)Nc3ccc(C(F)(F)F)cc3)ccc2O[C@H]1CN(C)S(C)(=O)=O,inactive,inactive,inactive
COCC(=O)Nc1ccc2c(c1)C(=O)N(C)C[C@@H](OC)[C@H](C)CN(Cc1ccccc1F)[C@H](C)CO2,inactive,inactive,inactive
C=CCN(CCCC)C(=O)[C@H]1N(CCOCCO)C(=O)[C@H]2[C@H](C(=O)O)[C@@H]3C=C[C@@]21O3,inactive,inactive,inactive
CN1C(=O)c2cc(NC(=O)C3CCOCC3)ccc2OC[C@H]2O[C@H](CC(=O)NCc3ccc4c(c3)OCO4)CC[C@@H]21,inactive,inactive,inactive
C[C@@H]1CN([C@@H](C)CO)C(=O)Cc2cc(NC(=O)Cc3ccccc3)ccc2O[C@@H]1CN(C)C(=O)Nc1ccc(C(F)(F)F)cc1,inactive,inactive,inactive
C[C@@H]1CCCCO[C@H](CN(C)C(=O)Nc2ccc3c(c2)OCO3)[C@H](C)CN([C@@H](C)CO)C(=O)c2cc(NC(=O)c3ccccc3)ccc2O1,inactive,inactive,inactive
CCC(=O)Nc1ccc2c(c1)OC[C@H](C)N(C(=O)CN1CCOCC1)C[C@H](C)[C@H](OC)CN(C)C2=O,inactive,inactive,inactive
Cn1cnc(CCNC(=O)C[C@@H]2CC[C@@H]3[C@H](COC[C@@H](O)CN3C(=O)Nc3ccc(C(F)(F)F)cc3)O2)c1,inactive,inactive,inactive
c1cn2c(n1)NCC2,inactive,inactive,inactive
C[C@@H]1CN([C@@H](C)CO)C(=O)c2cc(C#Cc3ccncc3)cnc2O[C@H]1CN(C)S(=O)(=O)c1ccccc1F,inactive,active,inactive
Nc1nnc2n1CCS2,inactive,inactive,inactive
C[C@@H]1CN([C@H](C)CO)C(=O)c2c(c3ccccc3n2C)-c2ccccc2CO[C@H]1CN(C)Cc1ccc(C(F)(F)F)cc1,active,active,inactive
O=C(C[C@@H]1C[C@H]2c3cc(NS(=O)(=O)c4ccc(F)cc4)ccc3O[C@H]2[C@H](CO)O1)N1CCCCC1,inactive,inactive,inactive
CN(C)CCO[C@@H]1C[C@@H]2CN(S(=O)(=O)c3cn(C)cn3)CCN2C1,inactive,inactive,inactive

SMILES,cytotoxicity call [1],cytotoxicity call [2],growth inhibition call [3]
Cc1noc(C)c1NC(=O)Nc1ccc2c(c1)CC(=O)N([C@@H](C)CO)C[C@H](C)[C@H](CN(C)S(=O)(=O)c1cn(C)cn1)O2,inactive,inactive,inactive
C[C@@H]1CN([C@@H](C)CO)C(=O)Cc2cc(NC(=O)Nc3ccc(C(F)(F)F)cc3)ccc2O[C@H]1CN(C)Cc1ccc(Cl)c(Cl)c1,active,active,inactive
COCC(=O)N(C)C[C@H]1Oc2cc(C#CC(C)(C)O)ccc2S(=O)(=O)N([C@@H](C)CO)C[C@@H]1C,inactive,inactive,inactive
N[C@@H]1CN(c2c(F)cc3c(=O)c(C(=O)O)cn([C@@H]4C[C@@H]4F)c3c2Cl)CC12CC2,inactive,inactive,inactive
Cc1ccc(S(=O)(=O)N2C[C@@H](O)COC[C@@H]3O[C@H](CC(=O)NCc4ccc5c(c4)OCO5)CC[C@H]32)cc1,inactive,inactive,inactive
C[C@@H]1CN([C@@H](C)CO)C(=O)CCCn2nncc2CO[C@H]1CN(C)C(=O)Nc1ccnc(N2CCOCC2)c1,inactive,inactive,inactive
Cc1noc(C)c1NC(=O)Nc1cccc2c1O[C@H](CN(C)S(C)(=O)=O)[C@@H](C)CN([C@H](C)CO)C2=O,inactive,inactive,inactive
C[C@@H]1CN([C@@H](C)CO)C(=O)c2cc(NC(=O)c3ccncc3)ccc2O[C@@H](C)CCCCO[C@H]1CN(C)C(=O)Nc1ccc(C(F)(F)F)cc1,inactive,inactive,inactive
O=C([C@@H]1[C@@H](CO)[C@@H]2Cn3c(cccc3=O)[C@H]1N2CC1CCCC1)N1CCOCC1,inactive,inactive,inactive
CCOC(=O)c1c(CN2CCN(c3ccccc3)CC2)n(C2CCCCC2)c2cc(Br)c(O)cc12,active,inactive,inactive
Oc1ccccc1CNc1ccc(C2CCCCC2)cc1,inactive,inactive,inactive
C[C@@H]1CCCCO[C@H](CN(C)C(=O)C2CCCCC2)[C@@H](C)CN([C@H](C)CO)C(=O)c2cc(NC(=O)Nc3ccc(C(F)(F)F)cc3)ccc2O1,inactive,inactive,inactive
CN(C)CC(=O)N[C@H]1CC[C@H](CCn2cc(CN(C)C)nn2)O[C@@H]1CO,inactive,inactive,inactive
COCC(=O)N(C)C[C@@H]1Oc2cc(C#CC(C)(C)O)ccc2S(=O)(=O)N([C@@H](C)CO)C[C@@H]1C,inactive,inactive,inactive
COc1ccc(CN(C)C[C@@H]2OCCCC[C@H](C)Oc3ccc(NS(=O)(=O)c4ccc(F)cc4)cc3C(=O)N([C@H](C)CO)C[C@@H]2C)cc1,inactive,active,inactive
